Out of some 210,000 compounds screened, about 5,900 (2.8%) were called active. This list was built around the results that the source calls inconclusive (neither active nor inactive); the mix of calls is not that of the screen. The call rests on the fitted dose curve; in most records, active means well fitted activation curve with a large enough effect; inconclusive means small, poorly fitted or top-dose-only effect; inactive means no such curve, though single readings can be large or run the other way. Potencies of inconclusive entries are doubtful fits and often do not repeat.
Experiment: qHTS Assay for Enhancers of SMN2 Splice Variant Expression; further: nearly all actives have a fitted effect of over 55% in size; on activity change, positive = activation: % of control where 0% means no effect
Settings: HEK293 SMN2-luciferase splicing reporter, luminescence, 30-36 h; activity change, positive = activation: at 46.1 µM (top of the series)
Summary of the method: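 HEK293 cells carry an SMN2 […]–luciferase reporter in which exon 7 inclusion puts luciferase in frame. Cells were plated 10-12 h before compound addition, then incubated 30-36 h at 37C. ONE-Glo luminescence was read; sodium butyrate at 4.5 mM final served as control.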
In the case of `CC(=O)Nc1ccc2nc(-c3ccc(Br)o3)[nH]c2c1`, the Potency is reported as inconclusive: 0.794 µM [activator, single point].
In the case of `CC(C)(C)OC(=O)C(Cc1ccc(OC(C)(C)C)cc1)NC(=O)CNC(=O)CNC(=O)OCc1ccccc1` (configuration not stated), the Potency is reported as inconclusive: 4.47 µM [activator, single point].
For `CCc1ccc(NC(=O)c2cnn(-c3ccccc3)c2-n2cccc2)cc1`, the Potency was inconclusive: 20 µM [activator, single point].
For `Cc1nc2nc(-c3ccccc3)cc(=O)n2[nH]1`, the Potency was inconclusive: 12.6 µM [activator, single point].
In the case of `Cc1cccc(NC(=O)c2ccc(-c3ccccc3)s2)c1`, the Potency is reported as inconclusive: 17.8 µM [activator, single point].
In the case of `Cc1c(C(=O)Nc2ccc(Cl)cn2)oc2ccccc12`, the Potency is reported as inconclusive: 20 µM [activator, partial curve, poor fit].
For `COc1cc2c(C(=O)Nc3cc(OC)c(OC)c(OC)c3)cn(C)c(=O)c2cc1OC`, the “activity change, positive = activation” value was inactive: -4.28%.
In the case of `COc1ccc(C2c3cc(OC)c(OC)cc3CC(=O)N2c2ccc(C)cc2)cc1` (configuration not stated), the Potency is reported as inconclusive: 5.62 µM [activator, single point].
In the case of `C=CCOc1c(CNc2ccc(C(=O)O)cc2)cccc1OC`, the Potency is reported as inconclusive: 0.562 µM [activator, full curve, poor fit].
For `Cc1ccc(-c2csc(NC(=O)CSc3nc(C)cs3)n2)cc1`, the Potency was active: 14.1 µM.
For `COC(=O)c1cn(CC(=O)NCc2cccs2)c2ccccc12`, the Potency was active: 22.4 µM.
For `CCOc1cccc(NC(=O)C2CC(=O)N(CC)C(=Nc3ccc(F)cc3)S2)c1` (configuration not stated), the “activity change, positive = activation” value was inactive: -6.86%.
In the case of `CCN(CC)S(=O)(=O)c1ccc2c(c1)N(CC(=O)Nc1ccccc1F)C(=O)C1CCCN21` (configuration not stated), the “activity change, positive = activation” value is reported as inactive: -5.58%.
In the case of `CCCC1(C(=O)OC)C=C2C(=C(C(C)C)C(=O)C2C)CN1` (configuration not stated), the “activity change, positive = activation” value is reported as inactive: -12.9%.
In the case of `N#C/C(=C\c1cccnc1)C(=O)NC1CCCCC1`, the Potency is reported as inconclusive: 35.5 µM [activator, single point].
In the case of `CCOC(=O)Cc1cc(-c2ccc(O)cc2)nc2ccc3ccccc3c12`, the “activity change, positive = activation” value is reported as inactive: -3.01%.
For `Cc1cccc(C)c1Nc1nnc(SCC(=O)NC(=O)c2cccn2C)s1`, the Potency was inconclusive: 0.562 µM [activator, full curve, poor fit].
In the case of `COc1cc(OC)c(N2CC34C=CC(O3)C(C(=O)O)C4C2=O)cc1Cl` (configuration not stated), the Potency is reported as inconclusive: 0.282 µM [activator, full curve].
For `O=C(Nc1cccc(C(F)(F)F)c1)C(SCCO)c1ccccc1` (configuration not stated), the “activity change, positive = activation” value was inactive: 0.376%.
For `COc1ccc(-c2cn3cccnc3n2)cc1Br`, the Potency was inconclusive: 14.1 µM [activator, partial curve, poor fit].
In the case of `Cc1ccc(S(=O)(=O)Nc2cccc(-c3cn4ccsc4n3)c2)cc1`, the Potency is reported as inconclusive: 1.58 µM [activator, full curve, poor fit].
In the case of `CCCNS(=O)(=O)c1cc(Br)cc2c1N(C(=O)CC)CC2`, the activity change, positive = activation is reported as inconclusive: 33.2% [activator].
For `COc1cccc(C2Nc3ccccc3-c3nnc(SCc4ccccc4)nc3O2)c1OC` (configuration not stated), the Potency was inconclusive: 0.0056 µM [activator, full curve].
In the case of `Cc1[nH]n(-c2nc(-c3cccc([N+](=O)[O-])c3)cs2)c(=O)c1C`, the Potency is reported as active: 12.6 µM.
With `CCOc1ccc(-c2nnc(N)s2)cc1` the Potency was active: 11.2 µM.
With `O=C(Cn1cc(SCc2ccc(F)cc2)c2ccccc21)N1CCOCC1` the Potency was inconclusive: 35.5 µM [activator, single point].
For `Cc1ccc(Nc2ncnc3nc[nH]c23)cc1Cl`, the Potency was inconclusive: 15.8 µM [activator, single point].
With `Cc1cc(C)c2cc(CN(CCN3CCCC3)C(=O)Nc3ccc(F)cc3)c(=O)[nH]c2c1` the “activity change, positive = activation” value was inactive: 22.4%.
With `Cc1cc(-c2nc3ccccc3s2)ccc1NC(=O)c1cc(Cl)ccc1Cl` the activity change, positive = activation was inconclusive: 50.5% [activator].
In the case of `Cc1cc(C(=O)N/N=C/c2ccc(N3CCOCC3)cc2)c(C)o1`, the activity change, positive = activation is reported as inconclusive: 45.4% [activator].
For `CC(C)(C)c1ccc(C(=O)Nc2ccc([N+](=O)[O-])cn2)cc1`, the Potency was active: 2.82 µM.
With `CCCNC(=O)OC[C@H]1O[C@H](CCO/N=C(\C)CCN2CCc3nc(-c4ccccc4)c(-c4ccccc4)cc3C2)C=C[C@@H]1Oc1ccc(OC)cc1` the “activity change, positive = activation” value was inactive: -51.4%.
With `C=CCn1c(NCc2ccc3c(c2)OCO3)nc2ccccc21` the “activity change, positive = activation” value was inactive: -2.59%.
In the case of `CC(C)CC(NC(=O)C1CCC(C)CC1)C(=O)Nc1cccnc1` (configuration not stated), the Potency is reported as inconclusive: 0.0089 µM [activator, full curve, poor fit].
For `COc1ccc(C)cc1-n1c(-c2ccncc2)n[nH]c1=S`, the Potency was inconclusive: 0.0112 µM [activator, full curve, poor fit].
With `N#Cc1c(NC(=O)C2CC2)sc2c1CCCCC2` the Potency was inconclusive: 35.5 µM [activator, single point].
In the case of `O=C(COC(=O)CCCN1C(=O)c2cccc3cccc(c23)C1=O)Nc1cccc(Br)c1`, the Potency is reported as inconclusive: 0.126 µM [activator, full curve, poor fit].
With `CN(C)C(=O)CSc1nnc2sc3ccccc3n12` the “activity change, positive = activation” value was inactive: 17.4%.
In the case of `COc1ccc(C2CC(=O)N(CC(=O)Nc3ccc(C(F)(F)F)cc3)c3ccccc3S2)cc1` (configuration not stated), the “activity change, positive = activation” value is reported as inactive: -13.2%.
For `Nc1c(C(=O)Nc2ccc(Cl)cc2F)sc2nc(-c3cccs3)ccc12`, the “activity change, positive = activation” value was inactive: -7.21%.
For `Cc1ccc(Nc2ccc(NCc3ccccc3)nn2)cc1C`, the Potency was inconclusive: 11.2 µM [activator, partial curve, poor fit].
With `O=C(N/N=C/c1c[nH]c2ccc(Br)cc12)c1ccncc1` the “activity change, positive = activation” value was inactive: 7.11%.
In the case of `COc1ccc(CN2C(=O)c3ccccc3C(/C=N\OCc3ccc(C)cc3)C2=O)cc1` (configuration not stated), the “activity change, positive = activation” value is reported as inactive: -19.2%.
In the case of `Cc1ccc(OCC(=O)Nc2ccc(-c3nc4ccc(C)cc4o3)cc2)cc1`, the Potency is reported as active: 0.631 µM.
In the case of `Cc1cc(O)ccc1Nc1nc(-c2cccs2)cs1`, the Potency is reported as inconclusive: 35.5 µM [activator, single point].
For `CCn1c(SCC(=O)N2CCOCC2)nc2oc3c(Cl)cc(Cl)cc3c(=O)c2c1=O`, the Potency was inconclusive: 28.2 µM [activator, single point].
With `O=C(/C=C/c1ccc(Cl)cc1Cl)N1CCN(c2ccccc2[N+](=O)[O-])CC1` the Potency was inconclusive: 0.891 µM [activator, full curve, poor fit].
Potency means the concentration at half of the fitted maximal effect; tags describe the fitted curve by direction and shape.
